# In PubChem BioAssay AID485364 (National Center for Advancing Translational Sciences (NCATS), 2010):
# Screen size: about 360,000 compounds; about 11,000 (3.1%) were called active. This list was built around the results that the source calls inconclusive (neither active nor inactive); the mix of calls is not that of the screen. The call rests on the fitted dose curve; in most records, active means well fitted inhibition curve with a large enough effect; inconclusive means small, poorly fitted or top-dose-only effect; inactive means no such curve, though single readings can be large or run the other way. No potency is given beside an inconclusive call; the fits are too rough.
# Target: Schistosoma mansoni thioredoxin glutathione reductase (TGR) (UniProt Q962Y6)
# Test: qHTS Assay for the Inhibitors of Schistosoma Mansoni Peroxiredoxins; further: nearly all actives have a fitted effect of over 60% in size
# Conditions: purified TGR, DTNB reduction, TNB absorbance 405 nm; series mostly up to 114 µM
# Method in brief: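 TGR 20 nM + NADPH 100 uM (dispensed conc.), cpd preinc 15 min RT; start with NADPH (500 uM addition) then DTNB (15 mM addition). Kinetic TNB absorbance, 405 nm filter. Four-parameter Hill fit across titration.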
# Potency means the concentration at half of the fitted maximal effect; tags describe the fitted curve by direction and shape.
row,SMILES,Potency
1,O=C(CN1CCN(c2ccc(Cl)cc2)CC1)c1ccc2c(c1)OCO2,"inconclusive [inhibitor, partial curve]"
2,Cc1cc(C)c(C(=O)C(C)OC(=O)Cc2n[nH]c(=O)c3ccccc23)cc1C (configuration not stated),"inconclusive [inhibitor, partial curve]"
3,CCOc1ccc(OCC)c(NC(=O)c2cnc(SC)nc2-c2ccccc2)c1,inactive
4,FC(F)(F)c1ccc2c(c1)n(Cc1ccccc1)c1[n+]2CCCCC1,"inconclusive [inhibitor, partial curve]"
5,Clc1ccc(-c2ccc(CN3CCCCC3)o2)cc1,"inconclusive [inhibitor, partial curve]"
6,CC1CCCCC1NC(=O)c1ccc(-n2cncn2)c([N+](=O)[O-])c1 (configuration not stated),"inconclusive [inhibitor, single point]"
7,Cc1ccc(CN2CCSc3ccc(C(=O)Nc4ccc(C)cc4)cc32)cc1,inactive
8,COc1ccc(OC)c(NC(=O)CSc2ccc3nnc(-c4ccccn4)n3n2)c1,inactive
9,CCCC(=O)OCCNc1cc(SCc2ccco2)c2nonc2c1[N+](=O)[O-],active: 14.1 µM
10,Cc1nc(C)c(/C(O)=C\c2nc3ccc([N+](=O)[O-])cc3oc2=O)o1,"inconclusive [inhibitor, partial curve]"
11,C=CCN1C(=O)C(CC(=O)Nc2ccc(OC)cc2)N(Cc2ccco2)C1=S (configuration not stated),"inconclusive [inhibitor, full curve]"
12,CN(C)CC#CCOC(c1ccccc1)c1ccccc1,"inconclusive [inhibitor, partial curve]"
13,CC(=O)Oc1ccc(OC(C)=O)c(SCCCCCN2CCOCC2)c1,active: 50.1 µM
14,NC(=O)C1CCN(c2oc(-c3ccccc3)nc2S(=O)(=O)c2ccc(Br)cc2)CC1,"inconclusive [inhibitor, partial curve]"
15,Cc1nn(-c2ccccc2)c2c1C(c1ccccc1)C(C#N)=C(N)O2 (configuration not stated),inactive
16,Cc1ccc(C(=O)NNS(=O)(=O)c2ccccc2[N+](=O)[O-])cc1,"inconclusive [inhibitor, single point]"
17,CCn1c(O)c(C(=O)CC2NCCc3ccccc32)c(=O)n(CC)c1=S (configuration not stated),"inconclusive [inhibitor, full curve]"
18,C#CC[N+]1(CC#Cc2cccc3ccccc23)CCOCC1,active: 28.2 µM
19,COc1ccc(-c2cc(C(=O)OCC(=O)N(C)C)c3ccccc3n2)cc1,inactive
20,O=C(/C=C/c1ccccc1)c1ccccn1,"inconclusive [inhibitor, partial curve, poor fit]"
21,O=C(Nc1ccc([N+](=O)[O-])cc1)N1CCCCCC1,inactive
22,CC(C)n1ncc(N2CCOCC2)c(Cl)c1=O,"inconclusive [inhibitor, single point]"
23,CCn1nc(NC(=O)c2ccco2)c2cc3ccc(C)cc3nc21,"inconclusive [inhibitor, full curve]"
24,NC(=O)CSc1oc(-c2ccco2)nc1S(=O)(=O)c1ccc(F)cc1,"inconclusive [inhibitor, partial curve]"

row,SMILES,Potency
1,Cn1c(N)c(C(=O)CSc2nnc(C3CC3)n2Cc2ccccc2)c(=O)[nH]c1=O,"inconclusive [inhibitor, partial curve]"
2,COC(=O)c1c(NC(=O)/C=C/c2ccco2)sc2c1CCC2,"inconclusive [inhibitor, partial curve]"
3,CCCCN(CC)CCCNC(=O)c1cc2c(=O)n(CC)c3ccccc3c2s1,inactive
4,COc1ccccc1CN1CCNC(=O)C1CC(=O)O (configuration not stated),active: 79.4 µM
5,NC(=S)N/N=C1\CC(n2nnnc2-c2ccccc2)C2COC1O2 (configuration not stated),"inconclusive [inhibitor, full curve, poor fit]"
6,Fc1ccc(C2c3[nH]c4ccccc4c3CCN2Cc2ccoc2)cc1 (configuration not stated),"inconclusive [inhibitor, partial curve]"
7,COc1cccc(OCC(=O)Nc2c3c(nn2-c2ccccc2)CS(=O)(=O)C3)c1,"inconclusive [inhibitor, partial curve]"
8,O=C(/C=C/c1ccco1)Nc1nc(-c2ccccn2)cs1,active: 12.6 µM
9,O=C(CCSCc1cnn(-c2ccccc2)c1-n1cccc1)NCc1ccccc1Cl,inactive
10,Cc1ccc(O)c(C2=NNC(c3ccc(Cl)cc3)C2)c1 (configuration not stated),active: 44.7 µM
11,CCn1c(C)nc2cc(C(=O)N3N=C(CCOC)CC3(O)C(F)(F)F)ccc21 (configuration not stated),"inconclusive [inhibitor, partial curve]"
12,CC(=O)N1c2ccc(S(=O)(=O)NCc3ccco3)cc2CC1C (configuration not stated),"inconclusive [inhibitor, full curve, poor fit]"
13,CCc1ccc2oc(-c3ccc(NC(=O)c4cc5ccccc5o4)cc3)nc2c1,inactive
14,CCc1cc(=O)oc2c(C)c3c(cc12)CN(CCc1ccccc1OC)CO3,"inconclusive [inhibitor, partial curve]"
15,O=C1NC(=S)N(c2ccc(F)cc2)C(=O)/C1=C/c1ccccc1O,"inconclusive [inhibitor, partial curve]"
16,CC(NC(=O)CS(=O)(=O)c1ccccc1)c1ccccc1 (configuration not stated),inactive
17,O=C(Nc1ccc2c(c1)OCO2)C1CC(=O)N(CCc2ccccc2)C1 (configuration not stated),"inconclusive [inhibitor, single point]"
18,CCOc1ccc(C(=O)Nc2ccc3c(c2)OCCO3)cc1,"inconclusive [inhibitor, full curve, poor fit]"
19,Cc1cccc(-c2noc(-c3ccccc3OCC(=O)Nc3ccccc3[N+](=O)[O-])n2)c1,inactive
20,CCN(CC)CCCNC(=O)c1cn(CC(C)C)c(=O)c2c1c1ccccc1n2C,"inconclusive [inhibitor, partial curve]"
21,Cc1cc2cc(CNC(=O)c3ccco3)ccc2n1C,"inconclusive [inhibitor, partial curve]"
22,CCN(Cc1ccccc1)Cc1c(O)ccc2c(=O)c(-c3ccc(Cl)cc3)c(C(F)(F)F)oc12,inactive
23,CC(=O)Nc1ccc(NC(=O)CCS(=O)(=O)c2ccc3c(c2)oc(=O)n3C)cc1,"inconclusive [inhibitor, partial curve]"
24,Cc1cc2c(cc1NC(=O)c1ccccc1Cl)n(C)c(=O)c(=O)n2C,inactive

row,SMILES,Potency
1,CCOC(=O)c1ccc(N2C(=O)C(CC(=O)NC)N(CCc3ccc(OC)c(OC)c3)C2=S)cc1 (configuration not stated),"inconclusive [inhibitor, single point]"
2,NC(CSC12CC3CC(CC(C3)C1)C2)C(=O)O (configuration not stated),"inconclusive [inhibitor, full curve, poor fit]"
3,CCOc1cc(C(=S)N2CCOCC2)ccc1OS(=O)(=O)c1ccc(Br)cc1,"inconclusive [inhibitor, full curve, poor fit]"
4,O=S1(=O)CCN2C(c3ccco3)=CSC2=N1,"inconclusive [inhibitor, partial curve]"
5,Cc1ccc(NNC(=O)c2c(C)noc2C)cc1Cl,"inconclusive [inhibitor, partial curve]"
6,O=C(Nc1ccc(Cl)cc1Cl)C1CCCO1 (configuration not stated),"inconclusive [inhibitor, full curve, poor fit]"
7,Fc1ccccc1-c1nc2ncccc2o1,inactive
8,COc1ccccc1NC1=C(Cl)C(=O)OC1OC(=O)c1ccco1 (configuration not stated),"inconclusive [inhibitor, partial curve]"
9,CC(=O)c1c(C)oc2c1cc(NS(=O)(=O)c1c(C)cc(C)cc1C)c1ccccc12,"inconclusive [inhibitor, full curve]"
10,Cc1ccc(CNS(=O)(=O)c2ccc(CN3C(=O)c4cccnc4C3=O)cc2)o1,active: 20 µM
11,CCC1=C(OC(=O)N(CC)CC)N2C(=O)OC(=NCCc3c[nH]c4ccccc34)[C@]2(C)[C@H]2C1=CC[C@H]1C(=O)N(CC(=O)OC)C(=O)[C@H]12,inactive
12,Cc1cc(=O)oc2cc(OC(C)C(=O)NCc3ccccn3)ccc12 (configuration not stated),"inconclusive [inhibitor, partial curve]"
13,CN1CCN(S(=O)(=O)c2ccc(Sc3nnnn3-c3ccccc3)c([N+](=O)[O-])c2)CC1,active: 7.08 µM
14,Cc1c2cc(O)c(=O)cc-2oc2cc(O)c(O)cc12,"inconclusive [inhibitor, partial curve]"
15,CCN(CC)S(=O)(=O)c1ccc(OCCNS(C)(=O)=O)cc1,inactive
16,COc1cccc(OCC(=O)NC2CC(=O)N(c3cccc(OC)c3)C2)c1 (configuration not stated),inactive
17,COc1cccc2cc(C(=O)CS(=O)(=O)c3ccc(C)cc3)c(=O)oc12,"inconclusive [inhibitor, partial curve]"
18,Nc1nc(CN2CCCCCC2)nc(Nc2ccc(F)cc2)n1,"inconclusive [inhibitor, partial curve]"
19,COc1cccc(/C=C2\C(=O)C(=O)c3ccccc32)c1,inactive
20,CC(C)(C)OC(=O)N1CCC(c2c(C(=O)N3CCN(C(=O)c4ccco4)CC3)cnn2-c2cccc(Cl)c2)CC1,inactive
21,CCOC(=O)c1sc(-c2ccccn2)nc1C,inactive
22,COc1ccc(C2=NCCn3nc4ccccc4c32)cc1,"inconclusive [inhibitor, partial curve]"
23,CC(C)c1ccc(C(C)NC(=S)NC2CCCCC2)cc1 (configuration not stated),inactive
24,O=C1C2C3c4ccccc4C(c4ccccc43)C2C(=O)N1Cc1ccco1 (configuration not stated),"inconclusive [inhibitor, partial curve]"
